Key:
[1] = Permeability of the compound in aqueous buffer at pH 6.5 incubated for 2 hrs by PAMPA based HPLC analysis
[2] = Lipophilicity, logD of the compound in 1-octanol and phosphate buffer at pH 7.4 by LC-MS analysis; settings: octanol/water

SMILES	Papp at 2 h [1]	logD [2]
COc1cc(OC)c(F)c(COc2cnc(Nc3ccc(N4CCC(N5CCN(C)CC5)CC4)nc3)nc2)c1F	15.1 ×10⁻⁶ cm/s	2.7
COc1cc(OC)c(F)c(COc2cnc(Nc3cnc(N4CCC(N5CCN(C)CC5)CC4)nc3)nc2)c1F	18.4 ×10⁻⁶ cm/s	2.7
COc1cc(Nc2ncc(CCc3c(F)c(OC)cc(OC)c3F)cn2)ccc1N1CCN(C2CCN(C)CC2)CC1	3.5 ×10⁻⁶ cm/s	2.5
COc1cc(OC)c(F)c(COc2cnc(Nc3ccc(N4CCC(N5CCN(C)CC5)CC4)c(F)c3)nc2)c1F	26.6 ×10⁻⁶ cm/s	3.6
COc1cc(Nc2ncc(OCc3c(F)c(OC)cc(OC)c3F)cn2)cnc1N1CCC(N2CCN(C)CC2)CC1	14.4 ×10⁻⁶ cm/s	2.8
